The text below walks through data of the BET-seq Pho4 binding data (Le et al. 2018).

This is one part of the list. These are noisy estimates, calculated here from bound and input reads.

This assay addresses T1, Pho4 (S. cerevisiae) (UniProt P07270).
T1 sequence: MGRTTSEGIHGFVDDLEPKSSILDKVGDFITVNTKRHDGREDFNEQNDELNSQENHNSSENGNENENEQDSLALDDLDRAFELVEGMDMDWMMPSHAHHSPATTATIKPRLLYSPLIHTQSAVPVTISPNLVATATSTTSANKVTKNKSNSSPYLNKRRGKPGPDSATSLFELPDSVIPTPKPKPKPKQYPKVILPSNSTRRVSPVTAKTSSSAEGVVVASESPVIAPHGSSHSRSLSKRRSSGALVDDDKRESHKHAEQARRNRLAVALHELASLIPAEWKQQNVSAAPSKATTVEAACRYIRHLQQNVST
The experiment in a line: relative binding free energy (BET-seq); higher = weaker binding. The settings on record: reference: library average.
As to GGTCACACGTGGCGGT, the “relative binding free energy” value worked out at 0.05 kcal/mol. As for GGGGGCACGTGGCCTG, the “relative binding free energy” value is -0.41 kcal/mol. On to TGTTTCACGTGAGGAG, for which the “relative binding free energy” value came to 0.36 kcal/mol.

For the sequence CGGAGCACGTGCGGGA, the “relative binding free energy” value turned out to be 0.03 kcal/mol. The same measure for GAAGTCACGTGTTATG: 0.14 kcal/mol; for TGTGCCACGTGTGTGG: -0.09 kcal/mol. With TCTTACACGTGTATTG, the “relative binding free energy” value came to 0.03 kcal/mol.

In the case of AACAGCACGTGTTTGT, the “relative binding free energy” value was -0.07 kcal/mol. As for CTATTCACGTGTGGAG, the “relative binding free energy” value was 0.22 kcal/mol. In the case of CTGCGCACGTGGGGGC, the “relative binding free energy” value is -0.37 kcal/mol. Then TGAGGCACGTGGTTTG, with 0 kcal/mol; and AGGGGCACGTGTTATC, with -0.09 kcal/mol; and TGTTGCACGTGCGATG, with 0.02 kcal/mol. As to TGAGGCACGTGGGCAC, the “relative binding free energy” value was -0.11 kcal/mol. Then CTATGCACGTGTTTAG, with 0.01 kcal/mol. The same measure for GTCGGCACGTGGGCTT: -0.02 kcal/mol. The same measure for TGTTACACGTGGAGGT: 0.03 kcal/mol; for GGCGGCACGTGAGAGC: 0.35 kcal/mol. In the case of GCGGTCACGTGTATAG, the “relative binding free energy” value is 0.09 kcal/mol.

Take GGTTTCACGTGTAGCT: the “relative binding free energy” value was determined as 0.3 kcal/mol. In the case of AGTGGCACGTGACGTT, the “relative binding free energy” value was -0.05 kcal/mol. Then CTTGACACGTGGCGTG, with -0.16 kcal/mol; and GAGTACACGTGCTGGT, with 0.05 kcal/mol. The same measure for TAAAGCACGTGGGGTC: -0.15 kcal/mol; for GTGATCACGTGGGCTG: 0.05 kcal/mol. Then TGTTTCACGTGAAGGT, with 0.38 kcal/mol.

For GGGGTCACGTGTAGTG, the “relative binding free energy” value came to 0.17 kcal/mol. TTTTCCACGTGGATTG: the “relative binding free energy” value worked out at 0.09 kcal/mol. Turning to GCGGGCACGTGTGGAG, the “relative binding free energy” value was 0.03 kcal/mol. With GGGAGCACGTGGCGAG, the “relative binding free energy” value was -0.2 kcal/mol.

Consider TTCTGCACGTGTGTGG, for which the “relative binding free energy” value was 0.06 kcal/mol. As to GGTAACACGTGGTTAG, the “relative binding free energy” value is -0.14 kcal/mol. The same measure for TGGGGCACGTGTAATG: 0.11 kcal/mol. With CTATGCACGTGGGATT, the “relative binding free energy” value is -0.19 kcal/mol. With GTTGTCACGTGGTCGT, the “relative binding free energy” value was 0.07 kcal/mol.

Take AATAGCACGTGGGCGT: the “relative binding free energy” value is -0.35 kcal/mol.

Consider CCTTGCACGTGTTAGT, for which the “relative binding free energy” value is -0.03 kcal/mol. As to GGGCGCACGTGGCCGG, the “relative binding free energy” value is -0.16 kcal/mol. The same measure for GGCGGCACGTGTAATT: 0.11 kcal/mol; for TGTTTCACGTGGACGT: 0.36 kcal/mol. Take TTGATCACGTGTGGTC: the “relative binding free energy” value amounted to 0.21 kcal/mol. The same measure for TGTACCACGTGTTTGT: -0.03 kcal/mol; for GGGGGCACGTGTCAGA: -0.15 kcal/mol; for GGTTTCACGTGTGGCC: 0.39 kcal/mol.

Consider GCGTGCACGTGGGTGA, for which the “relative binding free energy” value is -0.1 kcal/mol. Then GATGGCACGTGGTTGT, with -0.1 kcal/mol; and TTTACCACGTGGTTGG, with -0.13 kcal/mol.

As to GGTGTCACGTGGATCT, the “relative binding free energy” value came to 0.24 kcal/mol. For the sequence CTTTTCACGTGTTGTC, the “relative binding free energy” value was determined as 0.27 kcal/mol. The same measure for TTTCTCACGTGGTTGC: 0.2 kcal/mol; for GCTGGCACGTGTGTGC: -0.01 kcal/mol; for TGAGTCACGTGAGGTG: 0.28 kcal/mol. Then GGGTTCACGTGCGGGA, with 0.32 kcal/mol; and GGGCTCACGTGTGTGC, with 0.16 kcal/mol. The same measure for TGTTTCACGTGGAAGA: 0.29 kcal/mol; for GCGGTCACGTGTGGCG: 0.16 kcal/mol. In the case of TTTCGCACGTGGAGCG, the “relative binding free energy” value was 0.07 kcal/mol.

Take TTGGGCACGTGCCGCG: the “relative binding free energy” value is -0.21 kcal/mol. On to AATAGCACGTGGTGGT, for which the “relative binding free energy” value was -0.16 kcal/mol. The same measure for GGAAGCACGTGGATAT: 0 kcal/mol. The same measure for CGTATCACGTGTGATA: 0.13 kcal/mol; for TGGGACACGTGCGTAG: -0.01 kcal/mol; for GTCGGCACGTGACGGG: 0.2 kcal/mol. The same measure for TAGCTCACGTGGTTCG: 0.23 kcal/mol; for AGCGGCACGTGGGTAG: -0.19 kcal/mol; for ATAGGCACGTGCGCAG: -0.11 kcal/mol.

In the case of GAGGTCACGTGGGAAT, the “relative binding free energy” value was 0.21 kcal/mol.

Regarding TATATCACGTGGGAGA, the “relative binding free energy” value was -0.04 kcal/mol.

Take GGCATCACGTGGCGTT: the “relative binding free energy” value is 0.14 kcal/mol. With CGAAACACGTGGGTGT, the “relative binding free energy” value is -0.11 kcal/mol.

For the sequence AGGGACACGTGCTGGT, the “relative binding free energy” value was -0.09 kcal/mol. With ATGGTCACGTGGGGAA, the “relative binding free energy” value worked out at 0.01 kcal/mol.

For TGATACACGTGATAGG, the “relative binding free energy” value was 0.07 kcal/mol.
